The IC50 comes from the fitted curve, where viability falls to half of the control; fits outside the tested doses are given as limits. For AUC the same curve is integrated over the 256-fold range of doses and scaled to a fraction; it is 1 without any effect and falls as sensitivity rises. An inferred top dose was calculated from the reported fits.
How the values were obtained:
Assay in all cases: Viability of human cancer cell lines after 72 h of drug (GDSC screen)
CCT007093 = compound: O=C1/C(=C/c2cccs2)CC/C1=C\c1cccs1 [CCT007093]; conditions: top dose 6.6 µM; top dose inferred
Description: (§1)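 Human cancer cell lines in 384-well plates, medium with 10% serum, drug for 72 h over a 256-fold dose range (nine 2-fold or five 4-fold steps up to the top dose). Adherent lines were fixed and stained with the nucleic acid dye Syto60, suspension lines read with resazurin; signal relative to control wells, capped at 0 and 100%. One two-parameter sigmoid per drug and line, fitted in a mixed model over all curves with the slope shared within a line.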

QL-XII-47 = compound: C=CC(=O)N1CCc2ccc(-n3c(=O)ccc4cnc5ccc(-c6cnn(C)c6)cc5c43)cc21 [QL-XII-47]; conditions: top dose 10.24 µM; top dose inferred
Description: as §1

BAY 61-3606 = compound: COc1ccc(-c2cc3nccn3c(Nc3ncccc3C(N)=O)n2)cc1OC [BAY 61-3606]; conditions: top dose 8 µM; top dose inferred
Description: as §1

KIN001-266 = compound: CCN1CCC(n2cc(CNc3cc(Cl)c4ncc(C#N)c(Nc5ccc(F)c(Cl)c5)c4c3)nn2)CC1 [KIN001-266]; conditions: top dose 20 µM; top dose inferred
Description: as §1

| Cell Line | AUC (CCT007093) | IC50 (CCT007093) | AUC (QL-XII-47) | IC50 (QL-XII-47) | AUC (BAY 61-3606) | IC50 (BAY 61-3606) | AUC (KIN001-266) | IC50 (KIN001-266) |
| --- | --- | --- | --- | --- | --- | --- | --- | --- |
| RD (rhabdomyosarcoma, adherent) | 0.981 | > 6.6 µM | 0.545 | 0.86 µM | 0.966 | > 8 µM | 0.849 | 17.3 µM |
| REH (B-cell leukaemia, suspension) | 0.984 | > 6.6 µM | 0.484 | 0.582 µM | 0.754 | 2.6 µM | 0.85 | 14.3 µM |
| RERF-GC-1B (stomach, adherent) | 0.852 | 6.08 µM | 0.791 | 5.22 µM | 0.915 | > 8 µM | 0.697 | 4.82 µM |
| RERF-LC-KJ (lung adenocarcinoma, adherent) | 0.955 | > 6.6 µM | 0.812 | 5.68 µM | 0.866 | 7.46 µM | 0.976 | > 20 µM |
| RERF-LC-MS (lung adenocarcinoma, adherent) | 0.959 | > 6.6 µM | 0.889 | > 10.2 µM | 0.979 | > 8 µM | 0.977 | > 20 µM |
| RERF-LC-Sq1 (lung squamous cell carcinoma, adherent) | 0.945 | > 6.6 µM | 0.773 | 6.03 µM | 0.945 | > 8 µM | 0.912 | > 20 µM |
| RF-48 (stomach, adherent) | 0.976 | > 6.6 µM | 0.585 | 1.13 µM | 0.595 | 0.942 µM | 0.718 | 5.65 µM |
| RH-1 (rhabdomyosarcoma, adherent) | 0.988 | > 6.6 µM | 0.599 | 1.14 µM | 0.827 | 3.85 µM | 0.794 | 7.57 µM |
| RH-41 (rhabdomyosarcoma, adherent) | 0.992 | > 6.6 µM | 0.912 | > 10.2 µM | 0.832 | 4 µM | 0.878 | 14.6 µM |
| RKN (ovary, adherent) | 0.984 | > 6.6 µM | 0.645 | 1.65 µM | 0.894 | > 8 µM | 0.965 | > 20 µM |
| RKO (large intestine, adherent) | 0.988 | > 6.6 µM | 0.503 | 0.653 µM | 0.771 | 2.85 µM | 0.87 | 16.3 µM |
| RL (B-cell lymphoma, suspension) | 0.984 | > 6.6 µM | 0.738 | 2.86 µM | 0.99 | > 8 µM | 0.869 | 15.9 µM |
| RO82-W-1 (thyroid, adherent) | 0.966 | > 6.6 µM | 0.968 | > 10.2 µM | 0.87 | > 8 µM | 0.892 | > 20 µM |
| ROS-50 (B-cell leukaemia, suspension) | 0.944 | > 6.6 µM | 0.917 | > 10.2 µM | 0.884 | > 8 µM | 0.791 | 11.9 µM |
| RPMI-2650 (head and neck, adherent) | 0.984 | > 6.6 µM | 0.701 | 2.49 µM | 0.546 | 0.675 µM | 0.862 | 19.4 µM |
| RPMI-6666 (Hodgkin lymphoma, suspension) | 0.972 | > 6.6 µM | 0.49 | 0.597 µM | 0.656 | 1.49 µM | 0.802 | 12.2 µM |
| RPMI-7951 (melanoma, adherent) | 0.987 | > 6.6 µM | 0.42 | 0.39 µM | 0.796 | 3.62 µM | 0.876 | 18.8 µM |
| RPMI-8226 (myeloma, suspension) | 0.987 | > 6.6 µM | 0.134 | 0.0567 µM | 0.943 | > 8 µM | 0.874 | 15.2 µM |
| RPMI-8402 (T-cell lymphoblastic leukaemia, suspension) | 0.991 | > 6.6 µM | 0.42 | 0.402 µM | 0.719 | 1.85 µM | 0.772 | 6.54 µM |
| RPMI-8866 (chronic myeloid leukaemia, suspension) | 0.935 | > 6.6 µM | 0.852 | 7.04 µM | 0.824 | 4.31 µM | 0.866 | 15.8 µM |
| RS4-11 (leukaemia, suspension) | 0.981 | > 6.6 µM | 0.597 | 1.15 µM | 0.661 | 1.34 µM | 0.88 | 17.7 µM |
| RT4 (bladder, adherent) | 0.987 | > 6.6 µM | 0.611 | 1.32 µM | 0.82 | 4.91 µM | 0.845 | 15.6 µM |
| RT-112 (bladder, adherent) | 0.98 | > 6.6 µM | 0.835 | 7.47 µM | 0.945 | > 8 µM | 0.937 | > 20 µM |
| RVH-421 (melanoma, adherent) | 0.962 | > 6.6 µM | 0.776 | 5.68 µM | 0.934 | > 8 µM | 0.765 | 10 µM |

| Cell Line | AUC (CCT007093) | IC50 (CCT007093) | AUC (QL-XII-47) | IC50 (QL-XII-47) | AUC (BAY 61-3606) | IC50 (BAY 61-3606) | AUC (KIN001-266) | IC50 (KIN001-266) |
| --- | --- | --- | --- | --- | --- | --- | --- | --- |
| RXF393 (kidney, adherent) | 0.918 | > 6.6 µM | 0.599 | 1.32 µM | 0.794 | 5.41 µM | 0.797 | 14 µM |
| Raji (Burkitt lymphoma, suspension) | 0.976 | > 6.6 µM | 0.559 | 0.92 µM | 0.859 | 5.96 µM | 0.886 | 19.6 µM |
| Ramos-2G6-4C10 (Burkitt lymphoma, suspension) | 0.989 | > 6.6 µM | 0.639 | 1.46 µM | 0.788 | 2.98 µM | 0.874 | 14.8 µM |
| SAS (head and neck, adherent) | 0.974 | > 6.6 µM | 0.475 | 0.543 µM | 0.93 | > 8 µM | 0.891 | > 20 µM |
| SAT (head and neck, adherent) | 0.899 | > 6.6 µM | 0.955 | > 10.2 µM | 0.911 | > 8 µM | 0.875 | > 20 µM |
| SBC-1 (small cell lung carcinoma, suspension) | 0.989 | > 6.6 µM | 0.986 | > 10.2 µM | 0.893 | > 8 µM | 0.871 | 17.6 µM |
| SBC-3 (small cell lung carcinoma, adherent) | 0.989 | > 6.6 µM | 0.197 | 0.0899 µM | 0.492 | 0.478 µM | 0.874 | 16.4 µM |
| SBC-5 (small cell lung carcinoma, adherent) | 0.953 | > 6.6 µM | 0.979 | > 10.2 µM | 0.906 | 7.32 µM | 0.993 | > 20 µM |
| SCC-4 (head and neck, adherent) | 0.937 | > 6.6 µM | 0.955 | > 10.2 µM | 0.85 | 7.88 µM | 0.96 | > 20 µM |
| SCC-9 (head and neck, adherent) | 0.946 | > 6.6 µM | 0.467 | 0.509 µM | 0.972 | > 8 µM | 0.794 | 12.2 µM |
| SCC-15 (head and neck, adherent) | 0.977 | > 6.6 µM | 0.839 | > 10.2 µM | 0.886 | > 8 µM | 0.868 | > 20 µM |
| SCC-25 (head and neck, adherent) | 0.953 | > 6.6 µM | 0.579 | 1.08 µM | 0.929 | > 8 µM | 0.808 | 12 µM |
| SCH (stomach, adherent) | 0.949 | > 6.6 µM | 0.884 | > 10.2 µM | 0.988 | > 8 µM | 0.948 | > 20 µM |
| SF126 (glioma, adherent) | 0.986 | > 6.6 µM | 0.593 | 1.16 µM | 0.934 | > 8 µM | 0.959 | > 20 µM |
| SF268 (glioma, adherent) | 0.98 | > 6.6 µM | 0.647 | 1.69 µM | 0.76 | 3.03 µM | 0.856 | 18.1 µM |
| SF295 (glioma, adherent) | 0.971 | > 6.6 µM | 0.609 | 1.31 µM | 0.902 | > 8 µM | 0.883 | > 20 µM |
| SF539 (glioma, adherent) | 0.974 | > 6.6 µM | 0.358 | 0.271 µM | 0.892 | 7.76 µM | 0.861 | 14.3 µM |
| SH-4 (melanoma, adherent) | 0.975 | > 6.6 µM | 0.796 | 8.27 µM | 0.9 | > 8 µM | 0.806 | 18 µM |
| SHP-77 (small cell lung carcinoma, semi-adherent) | 0.991 | > 6.6 µM | 0.752 | 3.08 µM | 0.903 | > 8 µM | 0.883 | 17.5 µM |
| SIMA (neuroblastoma, adherent) | 0.985 | > 6.6 µM | 0.78 | 4.8 µM | 0.839 | 6.49 µM | 0.786 | 9.91 µM |
| SJRH30 (rhabdomyosarcoma, adherent) | 0.974 | > 6.6 µM | 0.582 | 1.08 µM | 0.947 | > 8 µM | 0.875 | > 20 µM |
| SJSA-1 (bone, adherent) | 0.983 | > 6.6 µM | 0.739 | 3.4 µM | 0.775 | 3.57 µM | 0.858 | 20 µM |
| SK-CO-1 (large intestine, adherent) | 0.989 | > 6.6 µM | 0.989 | > 10.2 µM | 0.922 | > 8 µM | 0.963 | > 20 µM |
